Results reported in ChEMBL document CHEMBL1157539, “Thousands of chemical starting points for antimalarial lead identification” (Nature, 2010).
Whole data set: some 13,000 compounds, median “IFI” near 4, cut for the highest 2% near 17. This is one part of the list.

Test: GSK_TCMDC: Inhibition Frequency Index (IFI). The number of non-kinase HTS assays where a compound showed > 50 % inhibition, expressed as a percentage of the number of such assays in which the compound was tested (-0 is zero)
Format: functional

Row | Compound | IFI
1 | COc1ccc(Cl)cc1-c1nc(C(=O)NCCN2CCCCC2)c(C)s1 | 1.33%
2 | O=C(Nc1cccc(CN2CCCN(Cc3cccc(O)c3)CC2)c1)c1ccc(-c2ccccc2)cc1 | 6.71%
3 | COc1ccc2nccc([C@@H](O)CN3CCC(NCc4cc5cccc(OC)c5o4)CC3)c2c1 | 1.46%
4 | CC(Cc1ccc(NS(=O)(=O)c2ccc(CC(C)NCCc3cccc(Cl)c3)cc2)cc1)NCCc1cccc(Cl)c1 (configuration not stated) | 8.28%
5 | CCCOC(=O)c1ccc(OCCCON2C(=N)N=C(N)NC2(C)C)cc1 | 3.85%
6 | Cc1nnsc1C(=O)Nc1cccc(-c2cccc(-c3nc4cc(C(F)(F)F)ccc4[nH]3)c2)c1 | 9.91%
7 | Cc1cc(N[C@@H](CC(C)C)C(=O)NCc2cccs2)nc(NCCc2cccs2)n1 | 4.55%
8 | Cc1cc(N2CCCC2)nc(NC(=N)Nc2cccc(C(F)(F)F)c2)n1 | 5.3%
9 | CCCCCCCN1CCC(CC(=O)Nc2ccnc3ccc(OC)cc23)CC1 | 1.45%
10 | CCNC(=O)Nc1ccc(-c2cccc(-c3nc4cccc(C)c4[nH]3)c2)cc1 | 5%
11 | Cc1ccn2cc(-c3ccc(NC(=O)c4ccc(Br)o4)cc3)nc2c1 | 10.4%
12 | CCN1CCCC1CNC(=O)c1cc2c(-c3ccc(Cl)cc3)nn(C)c2s1 (configuration not stated) | 6.25%
13 | CN1CCN(CCCN(Cc2ccc(-c3cccc(CNC4CCCC4)c3)cc2)C(=O)/C=C/c2ccccc2)CC1 | 6.67%
14 | Cc1cc(C)cc(N2C(N)=NC(N)=NC2(C)C)c1 | 1.5%
15 | CCOC(=O)c1c(C)noc1Nc1ccc(OC)cc1 | 1.47%
16 | FC(F)(F)c1cccc(Nc2nc3nonc3nc2NC2C3CC4CC(C3)CC2C4)c1 (configuration not stated) | 20.6%
17 | CCNc1cc(C(=O)N[C@@H](Cc2ccccc2)[C@H](O)CNC2CCC(C)(C)C2)cc(N2CCCCS2(=O)=O)c1 (some centres not stated) | 1.48%
18 | COc1cc2c(cc1OC)CN(CCCCNC(=O)c1ccc(NC(=O)c3cc(Cl)cc(Cl)c3)cc1)CC2 | 1.79%
19 | COc1ccc(CNCc2ccccc2)cc1-c1ccc(S(=O)(=O)NCCN2CCCC2)c(F)c1 | 6.54%
20 | CC(C)c1ccc2c(c1)C(=O)c1ccc(C(=O)O)cc1S2(=O)=O | 0%
21 | CC(C)CNCc1cccc(-c2ccc(CNc3ccc4ncccc4c3)cc2)c1 | 10.8%
22 | CN1CCCc2cc(NC(=O)c3cc(-c4ccc(Cl)cc4)cs3)ccc2C1 | 10.2%
23 | OC(CNc1ccnc(Nc2ccc(Cl)cc2)n1)c1ccc(C(F)(F)F)cc1 (configuration not stated) | 13.5%

Row | Compound | IFI
24 | CC(C)c1ccc(NC(=O)c2ccc(C(=O)NC3CCN(Cc4ccsc4)C3)cc2)cc1 (configuration not stated) | 4.42%
25 | CCN(CCNc1nc(NCCc2cnc[nH]2)nc(N(CCC#N)Cc2ccccc2)n1)c1cccc(C)c1 | 3.65%
26 | COc1ccc(-c2cc3nc4c(c(NCCCn5ccnc5)n3n2)CCCC4)cc1 | 10.4%
27 | CCCCNc1nccc2ccc(-c3ccncc3)cc12 | 2.86%
28 | CC(C)C1CCc2nc(N)nc(N)c2C1 (configuration not stated) | 3.52%
29 | O=C(N[C@@H](CC1CCCCC1)C(=O)NCCN1CCCC1)c1ccc(O)c(-c2cccc(C(F)(F)F)c2)c1 | 2.19%
30 | O=c1cc(NCC2(CNCc3cn(Cc4ccccc4)c4ccccc34)CCCCC2)[nH]c2ccccc12 | 8.21%
31 | O=[N+]([O-])c1cc(C(c2ccc(O)c([N+](=O)[O-])c2)C(Cl)(Cl)Cl)ccc1O | 1.63%
32 | COc1cccc(CNC[C@@H](O)[C@H](Cc2ccccc2)NC(=O)c2cc3c4c(c2)c(C(C)C)cn4CCS(=O)(=O)N3C)c1 | 5.97%
33 | CCCc1c(C(=O)Nc2ccc3c(c2)CCN(C2CCC2)CC3)cnn1-c1ccc(Cl)cc1 | 9.85%
34 | c1cncc(-c2cccc(CNc3nccc(Nc4ccc(OCCN5CCOCC5)cc4)n3)c2)c1 | 0%
35 | O=C(Cn1c2ccccc2c(=O)c2ccc(Cl)cc21)Nc1ccc(C(F)(F)F)cc1 | 0.67%
36 | Cc1c(CNCCCNc2cc(=O)c3ccccc3[nH]2)sc(-c2ccco2)c1Br | 5.19%
37 | N=C(NCc1ccc(O)cc1)Nc1nc(-c2ccc(OCCCn3ccnc3)cc2)cs1 | 6.47%
38 | CCOc1c(Cl)cc(Cl)cc1CNCCCNc1nc2ccccc2[nH]1 | 7.25%
39 | CCOC(=O)c1c[nH]c2c(sc3cc(OC)ccc32)c1=O | 0%
40 | COc1cc(CCNC(=O)Cc2ccc3ccccc3c2)ccc1OCc1ccccc1 | 1.63%
41 | CC1CCCCC1N(C)C1CCN(CCCNC(=O)C=Cc2ccccc2Cl)CC1 (configuration not stated) | 5.98%
42 | COc1ccc(-c2nonc2NC(=O)c2cccc(Cl)c2)cc1OC | 1.03%
43 | CCCCCCN(CCCCCC)CC(O)c1c(OC)ccc2ccccc12 (configuration not stated) | 5.93%
44 | Cc1ccc(CN2CCCN(Cc3cccc(C(=O)Nc4ccc(C(C)(C)C)cc4)c3)CC2)s1 | 9.59%
45 | CN(C)c1cc2c(Nc3ccc4nc(Cc5ccccc5)[nH]c4c3)ncnc2cn1 | 0.79%
46 | CCCCN(CCCC)CCNC(=O)c1cccc(NC(=O)N2CCc3cc(SC)c(C(F)(F)F)cc32)c1 | 8.53%

Row | Compound | IFI
47 | Cn1cnc2c(Nc3ccncc3)nc(-c3ccc4c(c3)OCO4)nc21 | 2.94%
48 | COc1cc2c(cc1C(F)(F)F)N(C(=O)Nc1cc(Br)cc(-c3cccnc3)c1)CC2 | 3.55%
49 | CC(C)(C)C(=O)N1CCN(c2ccc([N+](=O)[O-])c(NC3CC3)c2)CC1 | 1.4%
50 | Nc1nc(N)c2c(ccc3c2ccn3Cc2ccc(Cl)cc2)n1 | 13.2%
51 | COc1cc(OC)c(NC(=O)C2c3ccccc3C(=O)N(CC(C)C)C2c2cccs2)cc1Cl (configuration not stated) | 0%
52 | Cc1ccc(S(=O)(=O)N2CCN(C(=O)c3cc(-c4cccs4)n[nH]3)CC2)c(C)c1 | -0%
53 | Cc1cccc2nc(-c3ccc(-c4ccc(C(=O)NCCc5cn(C)cn5)cc4)s3)[nH]c12 | 4.81%
54 | CC(C)(C)c1ccc(NC(=O)c2cccc(CN3CCCN(Cc4cccc(C#N)c4)CC3)c2)cc1 | 7.75%
55 | O=c1cc(NCCCCNCc2cccc(Cl)c2)[nH]c2ccccc12 | 3.65%
56 | O=C(NCCCCN1CCC(O)(c2ccc(Cl)cc2)CC1)c1ccc(Br)cc1 | -0%
57 | CCCCCNc1nc2nc(N)nc(N)c2nc1-c1ccccc1 | 4.44%
58 | O=C1COC2(CN1C1CCN(Cc3ccc(O)c(Cl)c3)C1)c1ccccc1-c1ccccc12 (configuration not stated) | 3.15%
59 | Nc1nc(N)c2cc(CNc3ccc(Cl)c(Cl)c3)ccc2n1 | 13.6%
60 | O=C(Nc1cccc(CN2CCCN(Cc3ncc[nH]3)CC2)c1)c1ccc2ccccc2c1 | 1.38%
61 | CCCCNC[C@@H](O)[C@H](Cc1ccccc1)NC(=O)c1cc2c3c(c1)c(CC)cn3CCS(=O)(=O)N2C | 2.92%
62 | CCOC(=O)c1ccc(NC(=O)Nc2ccc(Cn3ncc(N4CCCNCC4)c(Cl)c3=O)cc2)cc1 | 7.35%
63 | CCCC(=O)Nc1ccc(OCCCN(Cc2cccc(C(F)(F)F)c2)c2ccc(C#N)c(C(F)(F)F)c2)cc1 | 0.71%
64 | CCN(CC)Cc1cc(Nc2ccnc3cc(Cl)ccc23)ccc1O | 2.16%
65 | CN1CCCc2ccc(NC(=O)c3cnc(-c4ccccc4)cn3)cc21 | 1.38%
66 | COc1ccc2c(=NN=Cc3cccc(C)n3)cc(-c3ccccc3)[nH]c2c1 | 0.77%
67 | CC(C)c1ccc(-c2noc(SCC(=O)N(C)c3ccc(F)cc3)n2)cc1 | 2.33%
68 | Cc1cc(Nc2nc(NCc3cccnc3)nc3ccccc23)n[nH]1 | 6.72%
69 | CC(=O)Nc1ccc(C(=O)Nc2cccc(-c3ccc(-c4nc5ccccc5[nH]4)s3)c2)cn1 | 3.6%

Row | Compound | IFI
70 | O=C(COc1ccc(Cl)c(Cl)c1)NCCCCCN1CCCN(C(=O)Nc2cc(Cl)cc(Cl)c2)CC1 | 13.2%
71 | CC(=O)Nc1ccc(C(=O)Nc2ccc(-c3cccc(-c4nc5cccc(C)c5[nH]4)c3)cc2)cn1 | 5.45%
72 | O=C(/C=C/c1cccc(OC(F)(F)F)c1)NCCCCCN1CCC(c2c[nH]c3ccccc23)CC1 | 5.22%
73 | CC1(C)N=C(N)N=C(N)N1OCCCCON1C(N)=NC(N)=NC1(C)C | 1.44%
74 | O=c1ccc2ccc(F)c3c2n1CC3CN1CCC(NCc2cccc(-c3cccs3)c2)CC1 (configuration not stated) | 8.33%
75 | O=C(NCCCN(Cc1ccc(F)cc1)c1ccccn1)C(c1cc2ccccc2o1)N1CCN(C(c2ccccc2)c2ccccc2)CC1 (configuration not stated) | 2.08%
76 | Cc1cc(N[C@@H](CC(C)C)C(=O)NCCCOC(C)C)nc(NCCc2ccc(F)cc2)n1 | 4.88%
77 | CN(C)c1ccc(-c2nnc(Sc3ccc(C#N)c([N+](=O)[O-])c3)n2Cc2ccco2)cc1 | 3.55%
78 | COc1cc(Nc2ccc3cc(S(=O)(=O)N4CCCCC4C)ccc3n2)cc(OC)c1OC (configuration not stated) | 4.41%
79 | O=C1OC2(CCN(Cc3cccc(-c4ncc[nH]4)c3)CC2)CN1CCNCc1ccccc1 | -0%
80 | CCNC(=O)Nc1cccc(-c2ccc(-c3nc4cccc(C)c4[nH]3)s2)c1 | 5.88%
81 | Cc1cccc2nc(-c3cccc(-c4ccc(NC(=O)CC5NC(=O)c6ccccc65)cc4)c3)[nH]c12 (configuration not stated) | 4.55%
82 | COc1ccc2ncc(C)c(CCN3CCC(NCc4ccc5c(n4)NC(=O)CS5)CC3)c2c1 | 2.11%
83 | CNC(=O)CNC(=O)COc1cccc2ccccc12 | 0%
84 | O=C(NCCc1ccc(Cl)c(Cl)c1)C1CCCN(C(=O)c2ccc(O)c(-c3ccc(Cl)c(Cl)c3)c2)C1 (configuration not stated) | 1.52%
85 | CCOc1ccc(NC(=O)c2cccc(CN3CCCN(Cc4cccc(O)c4)CC3)c2)cc1 | 3.52%
86 | CN(C)c1ccc(-c2nc3cc(N)ccc3[nH]2)cc1 | 6.16%
87 | OC(CNC1CCCCC1)Cn1c2ccccc2c2ccccc21 (configuration not stated) | 1.68%
88 | O=C(/C=C/c1ccc(Cl)c(Cl)c1)N1CCC(NCc2c[nH]c3ccccc23)CC1 | 7.69%
89 | CC1(C)OC[C@]2(C)[C@@H](CC[C@]3(C)C4=CC(=O)CCC4CC[C@@H]23)O1 (some centres not stated) | -0%
90 | COc1cc2nc(N3CCN(C(=O)c4ccc(N(C(=O)OC(C)(C)C)C(=O)OC(C)(C)C)cc4)CC3)nc(N)c2cc1OC | 2.04%
91 | CCc1cn2c3c(cc(C(=O)N[C@@H](Cc4ccccc4)[C@H](O)CNCC(C)C)cc13)N(C)S(=O)(=O)CC2 | 2.26%
92 | COc1cc(Nc2ncnc3cc(OC)c(OC)cc23)cc([N+](=O)[O-])c1 | 0%
